Laboratory results: PubChem BioAssay AID686978 (National Center for Advancing Translational Sciences (NCATS), 2013)
Hit rate of the full screen: of about 420,000 compounds, about 64,000 (15%) were called active. Inconclusive means that the source gave no clear call. Such entries were picked first, then a sample of the others. Calls come from the whole dose curve; as a rule, active = well fitted inhibition curve with a large enough effect; inconclusive = small, poorly fitted or top-dose-only effect; inactive = flat fitted curve, though single readings scatter. Potencies of inconclusive entries are left out as doubtful fits.

test: qHTS for Inhibitors of human tyrosyl-DNA phosphodiesterase 1 (TDP1): qHTS in cells in absence of CPT; conditions: DT40 Tdp1-/- hTDP1 cells, no CPT, ATP luminescence, 48 h; activity change, negative = growth inhibition: at 46.2 µM (top of the series) unless noted; note: nearly all actives have a fitted effect of over 55% in size
Method in brief: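 Camptothecin absent (DMSO only). Human TDP1-complemented DT40 knockout cells, 400 cells/well, 37 °C for minimum 48 hr; ATP measured via CellTiter-Glo, 30 min dark incubation, luminescence.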
% is set by controls: 0 for no effect and ±100 for the full control effect; potency is the fitted concentration of half-maximal effect; tags give direction and shape of the fitted curve.

Row | Compound | Potency | activity change, negative = growth inhibition
1 | Cc1cc(C(=O)COC(=O)c2ccc[nH]c2=O)c(C)n1-c1ccccc1F | inconclusive [inhibitor, full curve, poor fit] | –
2 | CN(C)c1ncnc2c1ncn2[C@H]1CN(CCN2CCOCC2)C[C@@H](CO)O1 | – | inactive: -6.81%
3 | Cc1ccc(C)c(N(C)C(=O)c2cn(C)c(=O)c3ccccc23)c1 | inconclusive [inhibitor, partial curve, poor fit] | –
4 | CCCCNC(=O)CN1C(=O)NC(Cc2ccccc2)(Cc2ccccc2)C1=O | inconclusive [inhibitor, single point] | –
5 | CC(=O)n1cc([C@@H]2C=C(C(=O)N3CCN(Cc4ccccc4)CC3)O[C@H](OCc3ccc(CO)cc3)C2)c2ccccc21 | active: 8.2 µM | –
6 | COc1cccc(NC(=O)c2ccc3c(O)c(S(=O)(=O)c4ccccc4)c(=O)[nH]c3c2)c1 | inconclusive [inhibitor, single point] | –
7 | Cn1c(SCC(=O)c2ccc(O)c(O)c2)nnc1-c1ccccc1 | inconclusive [inhibitor, single point] | –
8 | COc1ccccc1C(=O)N(Cc1ccccc1)c1ccc(C)cc1 | inconclusive [inhibitor, partial curve, poor fit] | –
9 | CCc1cc(C(=O)Cc2nc3ccccc3[nH]2)c(O)cc1O | inconclusive [inhibitor, single point] | –
10 | COc1ccc(-c2nc(CS(=O)CC(=O)NC3CCCCC3C)c(C)o2)cc1OC (configuration not stated) | inconclusive [inhibitor, single point] | –
11 | CC(C)(C)c1ccc(-c2cc(-c3ccccc3O)[nH]n2)cc1 | inconclusive [inhibitor, single point] | –
12 | O=C(c1cccc(Cl)c1)n1nc(-c2ccco2)nc1NCc1cccs1 | – | inactive: -23.4%
13 | O=C(NC1CCCCC1)C(c1ccccc1F)N(Cc1ccco1)C(=O)Cn1nnc2ccccc21 (configuration not stated) | active: 18.4 µM | –
14 | CC(c1cccnc1)N(CCN(C)C)C(=O)Nc1ccc(Cl)c(Cl)c1 (configuration not stated) | inconclusive [inhibitor, single point] | –
15 | Cc1ccc(COc2ccsc2C(=O)NN)cc1 | inconclusive [inhibitor, single point] | –
16 | CCCn1nc(NC(=O)C2CCCO2)c2cc3cccc(C)c3nc21 (configuration not stated) | active: 14.6 µM | –
17 | Nc1c(SCCC(=O)O)ccc2c1C(=O)c1ccccc1C2=O | – | inactive: -3.65%
18 | CC1(C)CN2C(=S)N(c3ccccc3)C(c3ccccc3)N2C1 (configuration not stated) | – | inactive: -22.3%
19 | Cc1cccc(Cn2c(SCc3ccc(C(=O)N4CCCCCC4)cc3)nc3ccncc32)c1 | inconclusive [inhibitor, single point] | –
20 | COc1ccc(C(=O)N2CCC[C@@]3(CCN(Cc4ccccc4OC)C3)C2)cc1 | inconclusive [inhibitor, single point] | –
21 | O=C(CN1C(=O)NC2(CCc3ccccc32)C1=O)c1ccc(F)c(F)c1 (configuration not stated) | inconclusive [inhibitor, single point] | –

Row | Compound | Potency | activity change, negative = growth inhibition
22 | COC(CNC(=O)c1ccc(Cn2c(=S)[nH]c3cc4c(cc3c2=O)OCO4)cc1)OC | inconclusive [inhibitor, partial curve] | –
23 | COC(=O)C(C(=O)OC)C(C(C)C)C(C(=O)OC)C(=O)OC | – | inactive: -2.2%
24 | CC(C)c1cc(C(=O)N(C)C2CCCN(Cc3ccccc3F)C2)n(C)n1 (configuration not stated) | active: 25.9 µM | –
25 | CC(=O)Oc1ccc(C(=O)Nc2cccnc2)cc1 | inconclusive [inhibitor, single point] | –
26 | O=C(Nc1ccc2nsnc2c1)N1CCCCCC1 | – | inactive: -2%
27 | CC(C)c1ccc(S(=O)(=O)Nc2cc3c(cc2NCc2ccccc2)n(C)c(=O)n3C)cc1 | inconclusive [inhibitor, single point] | –
28 | Cc1ccc([C@H]2C[C@@H](n3cc(COC(=O)c4ccccc4)nn3)[C@H](O)CN2Cc2cccs2)cc1 | active: 20.6 µM | –
29 | O=C(O)C/C(=C\c1cc(Br)cs1)c1nc2ccccc2o1 | – | inactive: 4.71%
30 | COCCn1c(=O)c(CCc2ccccc2)nc2cnc(Oc3ccc(OC)cc3)nc21 | – | inactive: -19%
31 | COc1ccc2c3n([n+]([O-])c2c1)CCN=C3c1cc(Cl)c(N)c(Cl)c1 | inconclusive [inhibitor, single point] | –
32 | COc1ccccc1NS(=O)(=O)c1ccc2oc(SC)nc2c1 | inconclusive [inhibitor, single point] | –
33 | CCC(=O)N1CCc2cc(S(=O)(=O)NC(Cc3ccccc3)C(=O)Nc3ccc(Cl)cc3)ccc21 (configuration not stated) | inconclusive [inhibitor, single point] | –
34 | CCN1C(=O)[C@H]2[C@@H](c3ccc(-c4ccc(Cl)c(Cl)c4)cc3)N[C@@](CC(C)C)(C(=O)OC)[C@H]2C1=O | inconclusive [inhibitor, partial curve, poor fit] | –
35 | O=C(CSc1nc(-c2ccccc2)[nH]c1-c1ccc(F)cc1)NC1CCCC1 | inconclusive [inhibitor, single point] | –
36 | CCn1c2c(c(=N)c3ccccc31)CCC2 | – | inactive: -25%
37 | COc1ccccc1C(=O)N1CCC(c2c[nH]c3ccccc23)(c2c[nH]c3ccccc23)CC1 | inconclusive [inhibitor, single point] | –
38 | COCCN(C(=O)COC(=O)c1c(NC(C)=O)sc(C)c1C)c1c(N)n(Cc2ccccc2)c(=O)[nH]c1=O | inconclusive [inhibitor, single point] | –
39 | O=S1(=O)c2ccccc2N=NN1Cc1ccc(Cl)cc1 | – | inconclusive: -38.5% [inhibitor]
40 | O=C(CCc1nnc(CCCCc2ccccc2)o1)NCc1cccc(F)c1 | inconclusive [inhibitor, partial curve] | –
41 | CCOc1ccccc1NC(=O)Cn1c(=O)n(Cc2ccco2)c(=O)c2cccnc21 | inconclusive [inhibitor, single point] | –
42 | Cn1nnnc1SCC1=C(C(=O)O)N2C(=O)[C@@H](NC(=O)[C@H](O)c3ccccc3)[C@H]2SC1 | inconclusive [inhibitor, single point] | –
